The structures appear in SMILES notation. The list shows a part of the results.

The text below walks through data of PMC12040169 (PLOS Biology, 2025).

The test system of the assay is T1, C. trachomatis L2/434/Bu expressing GFP (CTL2-GFP).
T1 construct: L2/434/Bu GFP intracellular growth in HeLa cells
Further details: species or system HeLa; C. trachomatis total inclusion area by high-content imaging, normalised to DMSO. Conditions: total inclusion area; 28.5 h, 10 µM; inhibitor. In a few lines: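 After bulk GFP and resorufin fluorescence reads, cells were fixed, stained with Hoechst and imaged by high-content microscopy. Inclusion area and number (GFP) stood in for chlamydial growth, nuclei count (Hoechst) for host cell viability. MICs were derived as for the bulk readout.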
Regarding `Cc1nccn1CC(=O)N1CCCC1(C)C(=O)NC1CCCC1` (stereo not drawn) [CBK281539], the “% of control remaining” value was found to be 99.1965.

Regarding `OCCOc1ccc(OCCOc2nccnc2N2CCNCC2)cc1` [CBK014349G], the “% of control remaining” value came to 107.798.

`COc1c(Cl)cc(Cl)cc1CNC(C)(C)CO` [CBK270212C]: the “% of control remaining” value is 60.4125.

On to `Cc1nc2nc(-c3ccc(F)cc3F)cn2nc1C` [CBK284564], for which the “% of control remaining” value turned out to be 46.5479.

For `O=C(O)COc1ccc2c(=O)c(Oc3ccccc3Br)c(C(F)(F)F)oc2c1` [CBK263747], the “% of control remaining” value was 96.3021.

`COC(=O)N/N=C(\C)c1ccc(Br)s1` [CBK027886]: the “% of control remaining” value came to 30.5326.

For `COc1cccc(C(=O)COC(=O)c2cc(-c3ccccc3)nc3ccc(Br)cc23)c1` [CBK265143], the “% of control remaining” value is 110.51.

`CCCn1cnnc1CN(C)C(=O)NCCc1nc2ccccc2s1` [CBK307663]: the “% of control remaining” value is listed as 69.7611.

Turning to `c1cn2cc(-c3ccoc3)nc(NC3CC3)c2n1` [CBK066720], the “% of control remaining” value is given as 106.248.

With `COc1cc(CNc2nn[nH]n2)ccc1OCc1ccc(F)cc1Cl` [CBK269536], the “% of control remaining” value was 94.5321.

For `Cc1cc(Cl)ccc1OCC(=O)Nc1ccc(O)cc1C(=O)O` [CBK131706], the “% of control remaining” value amounted to 123.763.

On to `CN(C)CCCNC(=O)c1cc(C(C)(C)C)nn1Cc1ccc(Cl)cc1Cl` [CBK107286], for which the “% of control remaining” value was found to be 71.0014.

As to `CN(C)c1ccc(-c2nc(-c3ccco3)cnc2N)cc1` [CBK063934], the “% of control remaining” value is listed as 53.224.

As to `CCN1CCN(c2ccc(N3C(=O)N[C@@H](C(C)C)C3=O)cc2)CC1` [CBK287953], the “% of control remaining” value was found to be 102.349.

On to `NS(=O)(=O)c1cc(C(=O)OCC(=O)c2ccccc2)c(Cl)cc1Cl` [CBK264542], for which the “% of control remaining” value was determined as 100.499.

As to `O=C(CSCc1nc(O)c2c3c(sc2n1)CCCC3)Nc1ccc(F)cc1` [CBK265568], the “% of control remaining” value was 100.112.

As for `CCOc1ccc2nc(NC3=NC(CC(=O)O)C(=O)N3)nc(C)c2c1` (stereo not drawn) [CBK263120], the “% of control remaining” value is 99.7867.

In the case of `COc1ccc2nc(Nc3nc(C)c(C(C)=O)s3)sc2c1` [CBK287483], the “% of control remaining” value was found to be 111.694.

With `Cc1cnn(CC2CCCCN2CC(=O)NCc2ccccn2)c1` (stereo not drawn) [CBK304041], the “% of control remaining” value is reported as 92.5006.

For the compound `CCCOc1ccc(C(=O)C(CN(CC)CC)Oc2ccccc2)cc1` (stereo not drawn) [CBK011944C], the “% of control remaining” value came to 87.7723.

For `CC1CCN(S(=O)(=O)N2CCNCC2)CC1` [CBK269836C], the “% of control remaining” value is given as 102.24.

Consider `Cc1cc(C)n(C2CCN(Cc3c(C)nc4c(C)cccn34)CC2)n1` [CBK281617], for which the “% of control remaining” value is recorded as 56.9977.

Take `OCCNC(=S)Nc1ccc(Cl)cc1Cl` [CBK265330]: the “% of control remaining” value is recorded as 113.075.

For `COc1cccc(CN(Cc2ccco2)Cc2[nH]cnc2C)c1` [CBK282495], the “% of control remaining” value is 119.575.

On to `O=C(c1ccccc1F)N1C[C@H](c2ccsc2)[C@H]2CN(Cc3cccs3)CC[C@H]21` [CBK285657], for which the “% of control remaining” value is reported as 92.64.

Turning to `O=C(O)CNC(=O)[C@H]1CC[C@H](Cn2cnc3ccccc3c2=O)CC1` [CBK286714], the “% of control remaining” value stood at 34.005.

Turning to `N#CCCn1cc(C(=O)N2CCCCC2)c(-c2cccc(Br)c2)n1` [CBK306202], the “% of control remaining” value was 55.1984.

For the compound `CCOC(=O)CSc1nnc(-c2ccc(Cl)cc2)o1` [CBK068845], the “% of control remaining” value worked out at 96.6659.

`NNC(=O)CNS(=O)(=O)c1ccccc1` [CBK261967]: the “% of control remaining” value is on record as 111.943.

For `CN(C)CCNC(=O)c1ccc(-c2cnc3[nH]c(=O)n(C4CCCC4)c3n2)cc1` [CBK064957], the “% of control remaining” value is listed as 83.3198.

As for `COCCN1C(=O)C2(CC(=O)N(CC(=O)C(C)(C)C)C2=O)c2ccccc21` (stereo not drawn) [CBK075324], the “% of control remaining” value stood at 51.5881.

On to `O=C(NCCOc1ccccc1)c1nccnc1-c1ccc(COc2ccc3c(c2)CCCC3)cc1` [CBK050852], for which the “% of control remaining” value was 130.329.

On to `O=C(c1cscn1)N1CCc2ccccc2C1` [CBK200342], for which the “% of control remaining” value is 90.6966.

Consider `Cc1ccc(-c2noc(CNC(=O)CSc3ccccc3)n2)cc1` [CBK270199], for which the “% of control remaining” value is 111.702.

In the case of `COc1ccc(C(=O)NC(c2ccc(OC)c(OC)c2)c2cc(Cl)c3cccnc3c2O)cc1` (stereo not drawn) [CBK263992], the “% of control remaining” value was determined as 109.153.

As to `COc1ccc(NC(=O)CN2CCN(S(=O)(=O)N(C)C)CC2)cc1` [CBK267465], the “% of control remaining” value was 91.7391.

As to `CC(=O)Nc1cccc(-c2cncc(NC3CCC(O)CC3)n2)c1` (stereo not drawn) [CBK065404], the “% of control remaining” value is reported as 96.9868.

As for `O=C(c1cc(-c2cccnc2)[nH]n1)N1CCC(c2ccccc2)C1` (stereo not drawn) [CBK281849], the “% of control remaining” value came out at 108.288.

Regarding `Cc1cc(NC(=O)CS(=O)(=O)Cc2cccc(C(F)(F)F)c2)no1` [CBK304520], the “% of control remaining” value was found to be 25.5278.

Regarding `Cc1cc(I)ccc1S(=O)(=O)NCc1ccccn1` [CBK262155], the “% of control remaining” value is reported as 91.3999.

As to `CC(C)(C)OC(=O)N1CCN(CCn2cc(C(=O)O)nn2)CC1` [CBK287112], the “% of control remaining” value is 111.23.

`CCC(CN1CCOCC1)NC(=O)Cc1ccc2c(c1)CCC2` (stereo not drawn) [CBK282810]: the “% of control remaining” value is listed as 56.3443.
